The text below walks through data of patent US20230331823A1 (HENRY M JACKSON FOUNDATION FOR THE ADVANCEMENT OF MILITARY …, published 2023).

The target of this assay is SARS-CoV-2 WA-1 Spike on pseudovirions (SARS-CoV-2). The experiment in a line: cell-based or functional assay.

B1: ShAb02a (ShAb02 VNAR-3c-Fc) (Fc fusion)
chain: ARVDQTPQTITKETGESLTINCVLRDSNCALASTDWYRKKSGSTNEESISKGGRYVETVNSGSKSFSLRINDLTVEDSGTYRCNAWDSWETRQLKCDYDVYGGGTVVTVNSREPKSCDKGLEVLFQ[no letters for human IgG1 Fc and a few adjoining residues]
For B1, the “pseudovirus neutralization IC50” value was determined as 0.038 µg/mL and the “pseudovirus neutralization IC80” value was found to be 0.127 µg/mL.

B2: ShAb01a (ShAb01 VNAR-3c-Fc) (Fc fusion)
chain: ARVDQTPRSVTKETGESLTINCVLRDSNCALSSTHWYRKKSGSTNEERILQGRRYVETVNSGSKSFSLRINDLRVEDSGTYRCKVYWGNSWQDKFCPGLGSYEYGDGTAVTVNSREPKSCDKGLEVLFQ[no letters for human IgG1 Fc and a few adjoining residues]
For the molecule B2, the “pseudovirus neutralization IC50” value is 0.228 µg/mL.
